In the supplement of paper PMC12217912:
The other results are listed elsewhere or left out. Sequences were assembled here from the parent chain. Inactive controls read about 0.05.

B1: TEV protease; numbered along this chain (parent)
chain: MGESLFKGPRDYNPISSSICHLTNESDGHTTSLYGIGFGPFIITNKHLFRRNNGTLVVQSLHGVFKVKDTTTLQQHLVDGRDMIIIRMPKDFPPFPQKLKFREPQREERICLVTTNFQTKSMSSMVSDTSCTFPSGDGIFWKHWIQTKDGQCGSPLVSTRDGFIVGIHSASNFTNTNNYFTSVPKNFMELLTNQEAQQWVSGWRLNADSVLWGGHKVFMVKPEEPFQPVKEATQL

Variants of: B1
Assay: raw area under fraction-flipped curve 0-4 h after induction (AUC4h, not background-subtracted), DNA-recorder readout of cleavage of the substrate (dimensionless); higher = more cleavage of the substrate by the protease variant
Conditions: temperature: 34 °C; time window: 0-4 h after rhamnose induction
Description: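 In vivo DNA recorder in E. coli TOP10(DE3) ΔrhaA at 34 °C. Each TEVp single-site mutant (parent TEVp 0) is paired with a single-site variant of the 7-mer TEVs (canonical ENLYFQ|S). The substrate sits between flexible linkers in a Bxb1-sfGFP-TEVs-SsrA fusion, so cleavage stabilises Bxb1 and speeds flipping of a recombination array, read by NGS. The value is the raw area under the fraction-flipped curve over 0-4 h after rhamnose induction (AUC4h), with ≥20 reads per time point. It is not background-subtracted; inactive controls average about 0.047.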
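Note: Bxb1 expression induced with 0.2% (w/v) L-rhamnose at OD600 near 0.5, cultures sampled hourly, flipped fraction per protease–substrate barcode pair counted by paired-end Illumina sequencing.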

Row | Variant | area with substrate ENLYFAS | area with substrate ENLYFES | area with substrate ENLYFFS | area with substrate ENLYFGS | area with substrate ENLYFIS | area with substrate ENLYFKS | area with substrate ENLYFMS | area with substrate ENLYFNS | area with substrate ENLYFPS | area with substrate ENLYFRS | area with substrate ENLYFSS | area with substrate ENLYFTS | area with substrate ENLYFWS | area with substrate ENLYFYS | area with substrate ENLYFDS | area with substrate ENLYFHS | area with substrate ENLYFLS | area with substrate ENLYFCS | area with substrate ENLYFVS
1 | T70C | 0.0694 | 0.056 | 0.0662 | 0.0674 | 0.071 | 0.0575 | 0.0564 | 0.0576 | 0.0533 | 0.0607 | 0.0612 | 0.0525 | 0.0634 | 0.0612 | – | – | – | – | –
2 | N24I | 0.0544 | 0.0649 | 0.0647 | 0.0607 | 0.0575 | 0.0721 | 0.0736 | 0.0684 | 0.0617 | 0.0613 | 0.0662 | 0.0572 | 0.0624 | 0.0638 | 0.0304 | 0.0587 | 0.082 | – | –
3 | T55P | 0.0739 | 0.0624 | 0.065 | 0.0631 | 0.0644 | 0.0573 | 0.0735 | – | 0.0672 | – | 0.057 | 0.0768 | – | 0.0552 | – | 0.0543 | 0.0634 | 0.0554 | –
4 | T55W | 0.0783 | 0.0646 | 0.0802 | 0.0742 | 0.0606 | 0.0532 | 0.0632 | 0.0914 | 0.0604 | 0.0555 | – | – | 0.0539 | 0.0517 | 0.0802 | – | – | 0.0553 | –
5 | G37D | 0.0468 | 0.0401 | – | – | 0.0473 | – | 0.0302 | 0.0448 | 0.0536 | 0.0511 | – | 0.0419 | 0.0527 | 0.0434 | 0.0497 | – | – | 0.0515 | –
6 | F65K | 0.0516 | 0.125 | 0.0652 | 0.055 | 0.0546 | – | 0.0611 | 0.0617 | – | – | – | – | 0.045 | 0.047 | – | 0.0553 | 0.05 | – | –
7 | F65C | 0.0471 | 0.0389 | 0.0696 | 0.0603 | 0.0599 | 0.0563 | 0.0659 | 0.0678 | – | 0.0465 | 0.0565 | 0.032 | 0.0533 | 0.0596 | – | 0.0658 | 0.0474 | – | –
8 | G35Y | 0.034 | 0.052 | – | – | 0.0322 | 0.0656 | – | 0.0391 | 0.0507 | – | – | – | – | 0.0351 | – | – | – | – | –
9 | T72W | 0.0553 | 0.041 | 0.0804 | – | 0.0518 | 0.0666 | 0.0681 | 0.0673 | 0.0663 | 0.0543 | 0.0539 | 0.0635 | – | – | – | 0.0662 | – | 0.0567 | –
10 | T72L | 0.06 | 0.0554 | 0.0568 | 0.0619 | 0.0503 | – | 0.0636 | – | 0.0612 | – | – | – | 0.0526 | – | – | – | – | – | –
11 | R51V | 0.0508 | – | 0.0553 | 0.0565 | 0.0549 | 0.144 | 0.0692 | – | 0.0512 | 0.052 | – | – | 0.0377 | 0.0754 | – | 0.0663 | 0.0764 | – | –
12 | R51E | 0.0634 | 0.0643 | 0.0595 | – | 0.0579 | – | 0.0619 | 0.0757 | 0.0526 | – | – | – | – | 0.0507 | 0.0661 | 0.0584 | – | 0.0442 | 0.0655
13 | R51Q | 0.0617 | 0.0736 | 0.0744 | – | – | 0.0658 | 0.0778 | 0.0703 | 0.0647 | – | 0.0572 | 0.0548 | 0.064 | 0.0647 | 0.0663 | 0.059 | – | 0.0552 | 0.0615
14 | Y34T | 0.0574 | – | – | – | – | 0.0547 | 0.0737 | 0.0576 | 0.0581 | 0.0526 | – | – | 0.055 | – | 0.0655 | 0.0711 | – | – | –
15 | Y34D | 0.056 | 0.0558 | 0.059 | – | – | – | 0.0538 | – | 0.0548 | – | – | 0.0811 | 0.0552 | 0.0431 | 0.0485 | – | – | – | 0.0625
16 | Y34M | 0.0595 | – | 0.0729 | – | 0.0574 | – | 0.0985 | 0.071 | 0.0487 | – | 0.055 | – | 0.0592 | – | 0.0713 | 0.0559 | – | – | –
17 | T71S | 0.0478 | 0.0511 | – | – | 0.0621 | 0.0507 | 0.0615 | 0.0434 | 0.0515 | – | – | 0.057 | – | 0.0653 | – | – | 0.0579 | 0.0461 | –
18 | K7C | 0.0632 | 0.0632 | 0.065 | – | 0.0611 | – | – | 0.0527 | – | – | 0.0646 | – | – | 0.0488 | – | – | – | 0.0549 | –
19 | K7F | 0.0648 | 0.0535 | – | – | 0.0681 | – | 0.0787 | 0.0684 | – | – | – | 0.0565 | – | – | – | 0.0705 | – | 0.0619 | –
20 | R10A | 0.0631 | 0.0567 | 0.0683 | – | 0.0461 | 0.0624 | 0.0666 | 0.0582 | 0.0558 | 0.0429 | – | 0.0565 | 0.0449 | 0.0643 | 0.0507 | – | – | 0.0609 | –
21 | S60I | 0.055 | 0.0676 | – | – | 0.052 | – | 0.0638 | – | – | – | – | – | 0.0601 | – | – | – | 0.0394 | 0.046 | –
22 | S60N | 0.0613 | 0.0678 | 0.0752 | – | 0.0588 | – | 0.0606 | 0.0584 | 0.0589 | – | 0.0703 | 0.0474 | – | – | 0.0709 | 0.0697 | 0.0557 | 0.0023 | –
23 | K46G | 0.0536 | 0.0428 | 0.0736 | 0.0557 | 0.0607 | 0.0606 | 0.0564 | 0.0552 | 0.0553 | – | 0.0448 | 0.0554 | 0.0975 | 0.0571 | 0.0707 | 0.0666 | 0.055 | 0.0444 | 0.0631
24 | G63E | 0.0552 | 0.0749 | 0.0496 | 0.0617 | – | 0.0603 | 0.0654 | 0.069 | 0.0556 | 0.0438 | 0.0449 | – | 0.0599 | – | 0.0591 | 0.0489 | – | – | 0.0195
25 | F49T | 0.057 | 0.051 | 0.07 | 0.0533 | 0.0524 | 0.054 | 0.0579 | 0.0623 | 0.0733 | – | – | – | 0.0487 | 0.0579 | 0.0632 | – | – | 0.0405 | 0.0519
26 | V57H | 0.0632 | 0.0704 | 0.0534 | – | 0.0461 | 0.0657 | 0.071 | – | 0.0633 | – | 0.0833 | – | – | – | – | – | – | 0.0627 | –
27 | V57P | 0.0415 | 0.0505 | – | – | 0.0475 | – | 0.0374 | 0.0815 | 0.0402 | – | 0.038 | – | 0.0734 | 0.0372 | – | – | – | – | 0.0301
28 | L5G | 0.056 | – | 0.0572 | – | 0.0634 | – | 0.098 | 0.053 | 0.0528 | 0.0649 | – | 0.0476 | 0.0544 | 0.0493 | – | 0.0531 | 0.0609 | – | –
29 | S26I | 0.0539 | – | 0.0675 | 0.0542 | – | – | 0.0554 | – | 0.0643 | 0.0548 | – | 0.0336 | 0.0589 | – | 0.0517 | – | 0.0605 | – | 0.0735
